About 540 (0.36%) of roughly 150,000 compounds showed an effect of 50% or more. The list shows a part of the results.
These compounds were tested on Plasmodium falciparum (assay: Primary screen in NF54 nanoGlo assay, in single point, at 2uM, 72h; a lower Z score goes with more inhibition). Details: timepoint 72 hour.
Type: functional, Erythrocyte
In the case of `CCCn1nc(C)c(Cn2cc(-c3nccs3)nn2)c1C`, the “% Inhibition” value is reported as -21% and the Z score is reported as 1.85. In the case of `CN(CC(C)(C)CO)c1ncc(C(=O)O)cc1Cl`, the “% Inhibition” value is reported as 6% and the Z score is reported as -0.74. For `CC(C)C[C@H](NC(=O)C1CCC(C(C)C)CC1)C(=O)O` (stereo partly drawn), the “% Inhibition” value was 33% and the Z score was -3.69. `Cc1nc(C(=O)NC[C@H]2CN(C3CC3)CCO2)no1` was tested, and the “% Inhibition” value was -13% and the Z score was 1.72. `Cc1ccc(C(=O)N2CCC3(CN(C)C3)C2)c2c1CCC2` was tested, and the “% Inhibition” value was -7% and the Z score was 0.85. For `CC(C)(C)OC(=O)N[C@H]1CCN(C(=O)c2c(F)ccc(F)c2F)C1`, the “% Inhibition” value was 2% and the Z score was -0.47. For `CCCS(=O)(=O)N1CC[C@H](c2noc(COCc3ccccc3)n2)C1`, the “% Inhibition” value was -10% and the Z score was 1.89. `N#CC1CCCCC1OC(=O)CC1CC2CCC1C2` (stereo not drawn) was tested, and the “% Inhibition” value was -3% and the Z score was 0.41. `O=S(=O)(c1ccccc1F)N1CCN(c2nc3nccc(-c4ccc(Cl)c(Cl)c4)n3n2)CC1` was tested, and the “% Inhibition” value was -29% and the Z score was 2.53. For `CC1(C)CC(=O)c2cc(C(=O)NCC3CC3)c(=O)[nH]c2C1`, the “% Inhibition” value was -6% and the Z score was 0.76. With `NC(=O)COc1cccc(C(=O)N2CCC[C@H]2c2cccc3ccccc23)c1` the “% Inhibition” value was 23% and the Z score was -2.52. In the case of `c1cncc(COC2CCN(Cc3ccc4occc4c3)CC2)c1`, the “% Inhibition” value is reported as -6% and the Z score is reported as 0.94. For `Cc1cc(=O)c(C(=O)Nc2cc(C3CC3)ccn2)c[nH]1`, the “% Inhibition” value was -16% and the Z score was 2.04. In the case of `CC(=O)N1CC[C@H](CN(C)Cc2c(Cl)cccc2N2CCCC2)C1`, the “% Inhibition” value is reported as -7% and the Z score is reported as 0.7. In the case of `N[C@H]1C[C@H](c2cc(NCCCn3nccc3C3CC3)nc(C3CC3)n2)C1`, the “% Inhibition” value is reported as 2% and the Z score is reported as -0.29. In the case of `CC(NC(=O)c1cnns1)C1CN(Cc2ccccc2)CCO1` (stereo not drawn), the “% Inhibition” value is reported as 11% and the Z score is reported as -1.45. In the case of `CC(C)(NC(=O)c1ccc(C(F)F)c(F)c1)C1CCOCC1`, the “% Inhibition” value is reported as 3% and the Z score is reported as -0.43. For `CCc1nncn1C1CCN(S(=O)(=O)c2ccccc2C)CC1`, the “% Inhibition” value was -13% and the Z score was 2.42. With `CC(C)CC1(NC[C@]2(O)CCCN(Cc3cccc(F)c3F)C2=O)CC1` the “% Inhibition” value was -3% and the Z score was 0.38. For `CCCN1CC[C@H](Nc2cc(OC)nc(N)n2)C1`, the “% Inhibition” value was 4% and the Z score was -0.85. For `Cc1ccc(OCC(=O)Nc2noc(-c3cccc4ccccc34)n2)cc1`, the “% Inhibition” value was 0% and the Z score was 0.01. With `CCOC(=O)N1CCC(NC(=O)C2CCCCC2C(=O)N2CCc3ccccc32)CC1` (stereo not drawn) the “% Inhibition” value was 8% and the Z score was -1.49. For `COc1ccc(C[C@](C)(O)CNC(=O)c2ccc3c(c2)OCO3)cc1`, the “% Inhibition” value was -14% and the Z score was 2.33. `CNC(=O)c1cc(NC(=O)N2CCCC[C@@H]2CN2CCCC2)ccc1OC` was tested, and the “% Inhibition” value was -9% and the Z score was 1.52.

Reference: ChEMBL document CHEMBL4888484, “Replenishing the malaria drug discovery pipeline: Screening and hit evaluation of the MMV Hit Generation Library 1 (HGL1) against asexual blood stage Plasmodium falciparum ,using a nano luciferase reporter read-out” (2022)
